Here are results for 91 molecules from PubChem BioAssay AID463173 (ICCB-Longwood Screening Facility, Harvard Medical School, 2010).

Each structure is given as a SMILES string. The whole screen tested about 52,000 compounds, of which about 4,300 (8.3%) were called active. No stated cut-off is given here; in the data, active means survival mostly below about 52% (no sharp cut-off); inactive means mostly above about 56%. This is one part of the list.

For this assay, the system named is DeltatarO mutant. Put plainly: S. aureus survival, RN4220 and DeltatarO strains – OD600, teichoic acid synthesis inhibitors, primary screen (AID 463173). The settings on record: S. aureus RN4220 wild type/DeltatarO growth, OD600, 18 h, hits give low values, screened at 18.75 µg/mL (by protocol).
`Cc1cccc(N2CCN(C(=O)c3oc(=O)c4ccccc4c3-c3ccccc3)CC2C)c1` (stereo unspecified): the survival was inactive: 74%.
Take `Cc1ccc(CNC(=O)CSc2nnc(C)c3c(C)n(-c4ccccc4)nc23)cc1`: the survival was inactive: 73%.
The figure for `CC1CCN(S(=O)(=O)c2ccc3c(ccc(=O)n3CC(=O)NCc3ccccc3Cl)c2)CC1` is inactive: 69%; for `CC(C(=O)N1c2ccccc2CCc2ccccc21)n1nnc(-c2ccc(N(C)C)cc2)n1` (stereo unspecified) it is inactive: 90%.
The figure for `COc1ccc(-c2[nH]ncc2C(=O)NCc2cccc(OC)c2)cc1` is inactive: 85%; for `COc1cccc(CNCc2cccn2-c2nnc(N3CCN(c4ccccc4)CC3)s2)c1` it is inactive: 79%; for `O=C(CCn1c(=O)c2sccc2n(CC(=O)Nc2ccccc2)c1=O)NCc1ccccc1Cl` it is inactive: 75%.
The figure for `CCOc1cccc2cc(-c3cn4c(n3)sc3ccccc34)c(=O)oc12` is inactive: 72%; for `O=S(=O)(c1ccc(Cl)cc1)c1nnn2c1nc(NC1CCCCC1)c1sccc12` it is inactive: 41%; for `CCC1CN(C(=O)N2CCC(C(=O)NCc3cc(OC)c(OC)c(OC)c3)CC2)c2ccccc2O1` (stereo unspecified) it is inactive: 81%.
Consider `COCCNC(=O)Nc1ccc2c(c1)nc(C)n2C`, for which the survival is inactive: 91%.
The figure for `CN(C)c1ccc(NC(=O)Cn2nnc3sc4c(c3c2=O)CCC(C(C)(C)C)C4)cc1` (stereo unspecified) is inactive: 79%.
The figure for `CCSc1ncc(Cl)c(C(=O)Nc2nc3ccc(Cl)cc3s2)n1` is inactive: 100%; for `O=C(Nc1ccc2c(c1)OCCO2)C1CCCN(S(=O)(=O)Cc2ccccc2)C1` (stereo unspecified) it is inactive: 102%.
The figure for `O=C(Nc1ccc(O)c(-c2nc3ccccc3o2)c1)c1ccc(Br)cc1` is inactive: 80%; for `CN(C)CC1(c2ccccc2)CCCC1` it is inactive: 72%; for `Cc1cc(S(=O)(=O)N(C)Cc2ccccc2)ccc1-n1cnnn1` it is inactive: 81%.
As for `CCN(C(=O)CCNC(=O)Cn1cnc2ccccc2c1=O)c1cc(OC)ccc1OC`, the survival is inactive: 79%.
With `COc1ccc(NC(=O)CSC2=Nc3ccccc3N=C(c3ccc(F)cc3)C2)cc1OC`, the survival was inactive: 86%.
The same measure for `O=C1c2cccc3c(N4CCCCC4)ccc(c23)C(=O)N1c1ccccn1`: inactive: 88%; for `Cc1ccc2c(c1)c1c(c(=O)n(-c3ccccc3C)c(=O)n1CC(=O)c1ccc(Cl)cc1)n2C`: inactive: 90%.
The same measure for `CCc1ccc(NC(=O)N(Cc2c[nH]c3ccccc23)C2CCCCC2)cc1`: inactive: 84%; for `CCOc1cc(C(=O)Nc2ccc(NC(=O)c3cc4ccccc4o3)c(OC)c2)cc(OCC)c1OCC`: inactive: 111%.
The same measure for `Cc1ccc(NC(=O)Nc2c[nH]c(=O)[nH]c2=O)c(Cl)c1`: inactive: 94%.
With `CC(=O)N(C1=NCCCCS1)c1ccccc1`, the survival was inactive: 77%.
The same measure for `CCOc1ccc2nc(N3CCCC(C(=O)Nc4cc(C)ccc4C)C3)sc2c1` (stereo unspecified): inactive: 103%; for `Cc1ccc(NS(=O)(=O)c2cc(-c3cc(C)no3)ccc2C)c(Cl)c1`: inactive: 94%; for `CCc1ccccc1NC(=O)CSc1nnc(-c2ccc(OC)cc2)s1`: inactive: 80%.
With `CC(=O)Nc1ccc(NC(=O)C2CCN(S(=O)(=O)c3ccc4c(c3)CCCC(=O)N4)CC2)cc1`, the survival was inactive: 85%.
The same measure for `Cc1cccc(NC(=O)c2oc3ccccc3c2NC(=O)c2cc(=O)c3ccc(C)cc3o2)c1`: active: 28%; for `Cc1cc(NC(=O)CCc2nc3cccnc3n2Cc2cccs2)ccc1Br`: inactive: 50%; for `Cc1ccc(-n2c(=O)c3c(cnn3C)n(Cc3ccc(Cl)cc3)c2=O)cc1`: inactive: 144%.
The same measure for `COC(=O)c1ccccc1NC(=O)Cc1noc2ccc(C)cc12`: active: 39%.
The figure for `COc1ccc(Br)cc1CNC(=O)CN1CCSc2ccccc21` is inactive: 88%.
For `CCc1ccc(NC(=O)CC2C(=O)N(c3ccccc3)C(=O)N2C(C)C)cc1` (stereo unspecified), the survival was active: -5%.
On to `Cc1cccc(NC(=S)NC(=O)/C=C/c2ccco2)c1`, for which the survival is inactive: 115%.
The figure for `COc1ccc(NC(=O)Cn2c(=O)n(Cc3nc(-c4ccccc4)no3)c(=O)c3cc4c(cc32)OCO4)cc1Cl` is inactive: 86%; for `Cc1cccn2c(=O)cc(COc3cccc(NC(=O)c4ccccc4F)c3)nc12` it is active: -5%; for `CC(C)c1cnc2c(c1SCc1cccc(C(F)(F)F)c1)c(=O)n(C)c(=O)n2C` it is inactive: 78%.
The figure for `CS(=O)(=O)N(CC(=O)N1CCCC1)c1cccc(Cl)c1Cl` is inactive: 75%; for `Cc1ccc(-n2c(=O)c3ccc(C(=O)NCc4ccco4)cc3n(Cc3cccc(Cl)c3)c2=O)cc1` it is inactive: 89%; for `Cc1cccc(-n2c3nc(=O)n(C)c(=O)c-3cc3c(Cl)cccc32)c1C` it is inactive: 82%.
The same measure for `O=C(Nc1ccc(F)cc1F)c1noc2c1CCc1ccccc1-2`: inactive: 70%; for `Cc1ccc(C(c2nnnn2C2CCCC2)N(C)C2CCCCC2)cc1` (stereo unspecified): inactive: 84%; for `CCc1nc(SCC(=O)Nc2ccc(NC(C)=O)cc2)n[nH]1`: inactive: 67%.
Regarding `CC(C)CCNC(=O)CSCc1cnn(-c2ccccc2)c1-n1cccc1`, the survival was inactive: 69%.
`CSc1ccc(CCNC(=O)Cn2ncc3c(=O)oc4ccc(C)cc4c32)cc1`: the survival is inactive: 89%.
The figure for `CCCCCOc1ccc(C2c3c(oc4ccccc4c3=O)C(=O)N2c2nc(C)c(C)s2)cc1OCC` (stereo unspecified) is inactive: 60%.
The figure for `COc1ccccc1CCNc1ncnc2c1nnn2C` is inactive: 102%; for `CC1(C)CC2CC(C)(CN2C(=O)Cc2ccccc2)C1` (stereo unspecified) it is inactive: 74%; for `OCCNc1nc2ccccc2s1` it is inactive: 83%.
For `COC(=O)C1=C(C)N(c2ccc(N(C)C)cc2)C(C)=C(C(=O)OC)C1c1ccccc1`, the survival was inactive: 70%.
The figure for `COc1ccc2c(c1)-c1nc(NC(=O)c3ccc(Cl)cc3)sc1CC2` is inactive: 96%; for `COc1ccc(CNc2ncnc3c2nnn3C)cc1` it is inactive: 83%.
Regarding `Cc1nn(CC(=O)NCc2ccc(OC(C)C)cc2)c(=O)c2c(C)n(-c3ccc(Cl)cc3)nc12`, the survival is inactive: 91%.
The same measure for `COc1ccc(CN2C(=O)C(NC(=O)c3ccccc3C)(C(F)(F)F)N=C2c2ccccc2)cc1` (stereo unspecified): inactive: 87%.
`CCc1ccccc1NC(=O)Cn1nnc(C(=O)Nc2ccc(C)c(F)c2)c1N`: the survival was inactive: 83%.
The figure for `Cc1cccc(NC(=O)Cn2cc(C(=O)c3ccco3)c3ccccc32)c1C` is inactive: 55%; for `Cc1cn(C2CC(O)C(CO)O2)c(=O)[nH]c1=O` (stereo unspecified) it is inactive: 74%.
`CCOC(=O)c1cccc(Nc2ccc3cc(S(=O)(=O)N4CCCCC4)ccc3n2)c1`: the survival was active: -1%.
The figure for `O=c1c2oc3ccccc3c2n(Cc2ccccc2)c(=O)n1Cc1ccc2c(c1)OCO2` is inactive: 74%; for `Cc1ccc(OCC(=O)Nc2ccc3nn(-c4ccc(Cl)cc4)nc3c2)cc1` it is inactive: 72%; for `CCOC(=O)C1CCCN(C(=O)c2ccc3c(c2)N(Cc2ccccc2)C(=O)c2ccccc2S3=O)C1` (stereo unspecified) it is inactive: 120%.
The same measure for `CCCN1CCCc2cc(CN(CCCN3CCOCC3)C(=O)Nc3ccc(CC)cc3)ccc21`: inactive: 119%; for `Cc1ccc(C)c(NC(=O)Cn2c(=O)n(CCC(=O)NCc3ccc4c(c3)OCO4)c(=O)c3ccccc32)c1`: inactive: 104%.
For `COc1cc(C2CC(=O)Nc3c2c(=O)[nH]c2ncnn32)ccc1O` (stereo unspecified), the survival is inactive: 70%.
Turning to `CCOc1ccc(N=C2SCC(=O)N2CC)cc1`, the survival was inactive: 72%.
The figure for `CCCCc1nn2c(=O)cc(COC(=O)c3ccccc3NC(=O)c3ccccc3OC)nc2s1` is inactive: 84%.
Consider `CCCCn1c(=O)c2oc3ccccc3c2n(CC(=O)Nc2cccc(Cl)c2)c1=O`, for which the survival was inactive: 59%.
The same measure for `CCCC(=O)N1c2nc(C(C)C)nn2C2(CCCCC2)[C@@H]2CCCC[C@@H]21`: inactive: 73%; for `COc1cccc(CNC(=O)c2ccc(NC(=O)N3CCCCc4ccccc43)cc2)c1`: inactive: 81%; for `COc1cc2c(cc1OC)n(CC(=O)c1ccc(F)cc1)c(=O)n1nc(CCn3nc(C)cc3C)nc21`: inactive: 105%.
The same measure for `COc1ccc(C)cc1NC(=O)c1ccc2c(Cl)c3c(nc2c1)CCC3`: inactive: 92%; for `COc1ccc(S(=O)(=O)c2c(SC)nn(Cc3ccccc3C)c2NC(C)=O)cc1`: inactive: 55%.
The same measure for `CN(C(=O)COc1ccccc1)C1CCS(=O)(=O)C1` (stereo unspecified): inactive: 89%; for `S=c1[nH]nc(COc2ccccc2)o1`: inactive: 66%.
Take `O=C(Nc1ccc(O)cc1)c1cccc(S(=O)(=O)N2CCOCC2)c1`: the survival was inactive: 77%.
The same measure for `CN(C)S(=O)(=O)c1cccc2nsnc12`: inactive: 82%; for `NC(=O)c1cc(S(=O)(=O)NCC2CCC(C(=O)Nc3ccc(Cl)cc3)CC2)cs1` (stereo unspecified): inactive: 66%; for `Cc1cccc(NC(=O)C(O)C(O)C(=O)Nc2cccc(C)c2)c1` (stereo unspecified): inactive: 87%.
For `Cc1nnc(N2CCN(C(=O)Nc3cccc(C(F)(F)F)c3)CC2)c2nn(-c3ccccc3)c(C)c12`, the survival is inactive: 84%.
Regarding `O=C(Nc1cccc(Cl)c1)c1csnn1`, the survival is inactive: 86%.
The figure for `Cc1cc(C)cc(NC(=O)N2CCC(NC(=O)C3CCCCC3)CC2)c1` is inactive: 92%.
The same measure for `Cc1ccc(C(=O)CSc2nnc(-c3cccc(C)c3)o2)cc1`: inactive: 80%; for `Cc1ccc(-c2nc(SCC(=O)NCC3CCCO3)c(-c3ccc(C)cc3)[nH]2)cc1` (stereo unspecified): inactive: 81%; for `Cc1cccc(NC(=O)CN(C)S(=O)(=O)c2ccc3c(c2)c(=O)n(C)c(=O)n3C)c1`: inactive: 92%.
The same measure for `O=C(NCCS(=O)(=O)N1CCN(c2ccccc2)CC1)C1CC(=O)N(c2ccccc2)C1` (stereo unspecified): inactive: 99%; for `CC1CCCCN1CC(=O)N1CCCc2c1c(=O)oc1ccc(OCc3ccccc3)cc21` (stereo unspecified): inactive: 77%.
For the molecule `COc1ccccc1C(=O)Nc1ccc(-c2nc3ccccc3s2)c(C)c1`, the survival was inactive: 83%.
The figure for `Cc1cc(Br)ccc1NC(=O)C1(S(=O)(=O)c2ccc(Cl)cc2)CC1` is inactive: 62%; for `O=C(NCc1ccccc1Cl)c1ccc(NC(=O)N2CCCCc3ccccc32)cc1` it is inactive: 83%.
